Article PMC8986528
These are yes or no findings as the source states them, for the method shown. In cells and extracts the contact can be indirect. Some binding calls cover weakened binding; strength is not graded here. For some of these results: Tags and fused reporters may be left off the sequences shown.

Amino acid sequences for entries named in this document (tags omitted). A change or cut given only in a name is not applied to a line headed by its entry.
UniProt Q8IZL8: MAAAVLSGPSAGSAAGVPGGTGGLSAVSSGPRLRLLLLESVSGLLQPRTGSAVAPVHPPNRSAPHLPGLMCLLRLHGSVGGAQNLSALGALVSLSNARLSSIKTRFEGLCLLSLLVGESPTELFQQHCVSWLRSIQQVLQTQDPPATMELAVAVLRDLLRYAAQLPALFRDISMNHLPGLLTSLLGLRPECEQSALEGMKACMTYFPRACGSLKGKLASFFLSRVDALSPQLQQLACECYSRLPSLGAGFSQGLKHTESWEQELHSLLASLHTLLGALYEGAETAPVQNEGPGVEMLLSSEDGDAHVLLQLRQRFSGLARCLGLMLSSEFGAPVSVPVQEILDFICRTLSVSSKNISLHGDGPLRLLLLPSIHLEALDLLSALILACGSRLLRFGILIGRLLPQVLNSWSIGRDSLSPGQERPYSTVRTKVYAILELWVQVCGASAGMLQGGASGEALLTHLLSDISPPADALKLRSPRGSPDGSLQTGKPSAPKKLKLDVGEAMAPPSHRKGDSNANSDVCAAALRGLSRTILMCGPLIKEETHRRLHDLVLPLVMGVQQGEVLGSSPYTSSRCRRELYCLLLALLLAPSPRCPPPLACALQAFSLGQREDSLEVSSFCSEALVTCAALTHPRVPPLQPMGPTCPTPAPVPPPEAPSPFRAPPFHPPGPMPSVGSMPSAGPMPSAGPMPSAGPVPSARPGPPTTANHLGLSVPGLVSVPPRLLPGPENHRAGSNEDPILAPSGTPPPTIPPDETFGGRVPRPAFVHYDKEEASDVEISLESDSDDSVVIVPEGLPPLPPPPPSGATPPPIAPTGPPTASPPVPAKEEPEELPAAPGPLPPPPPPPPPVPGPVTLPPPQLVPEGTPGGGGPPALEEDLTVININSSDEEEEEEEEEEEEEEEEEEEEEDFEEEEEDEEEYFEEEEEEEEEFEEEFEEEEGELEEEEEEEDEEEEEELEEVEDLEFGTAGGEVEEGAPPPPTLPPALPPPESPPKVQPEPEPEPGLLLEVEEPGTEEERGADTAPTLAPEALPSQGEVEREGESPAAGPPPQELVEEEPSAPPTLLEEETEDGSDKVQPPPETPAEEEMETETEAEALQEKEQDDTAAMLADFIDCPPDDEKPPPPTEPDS
UniProt Q9H4L4: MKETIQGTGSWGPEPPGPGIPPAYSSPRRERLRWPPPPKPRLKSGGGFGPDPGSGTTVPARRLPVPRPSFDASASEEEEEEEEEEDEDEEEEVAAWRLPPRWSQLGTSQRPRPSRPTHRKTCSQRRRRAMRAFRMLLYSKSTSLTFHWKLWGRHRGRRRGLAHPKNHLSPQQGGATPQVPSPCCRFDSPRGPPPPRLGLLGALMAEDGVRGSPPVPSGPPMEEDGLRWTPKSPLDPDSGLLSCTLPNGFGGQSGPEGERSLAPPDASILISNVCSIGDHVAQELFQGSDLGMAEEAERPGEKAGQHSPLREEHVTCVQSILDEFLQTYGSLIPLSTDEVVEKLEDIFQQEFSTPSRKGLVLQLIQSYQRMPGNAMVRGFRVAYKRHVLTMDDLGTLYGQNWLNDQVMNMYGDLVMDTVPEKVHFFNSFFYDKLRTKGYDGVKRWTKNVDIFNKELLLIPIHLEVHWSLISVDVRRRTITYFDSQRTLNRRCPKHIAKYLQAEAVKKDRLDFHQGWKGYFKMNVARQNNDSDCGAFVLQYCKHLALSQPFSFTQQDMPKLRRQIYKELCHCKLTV
UniProt Q99496: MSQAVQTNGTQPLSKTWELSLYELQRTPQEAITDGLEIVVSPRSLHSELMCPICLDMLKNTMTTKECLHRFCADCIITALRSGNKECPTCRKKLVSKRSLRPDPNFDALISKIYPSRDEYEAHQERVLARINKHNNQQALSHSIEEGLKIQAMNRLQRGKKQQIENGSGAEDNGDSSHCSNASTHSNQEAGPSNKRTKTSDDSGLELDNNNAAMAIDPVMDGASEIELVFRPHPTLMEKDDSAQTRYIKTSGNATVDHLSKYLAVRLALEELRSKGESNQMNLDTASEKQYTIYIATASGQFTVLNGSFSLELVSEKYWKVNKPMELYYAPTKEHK

Columns and labels:
[1] = target: T1, 3×Flag–NOL9 (human (endogenous in HEK 293FT)) (UniProt Q5SY16); experiment: co-IP; immunoprecipitation from the DNase I-digested chromatin fraction of HEK 293FT cells (IP buffer 250 mM NaCl, 1% Triton X-100), Dynabeads Protein A/G, immunoblot; Fig. 1f, g with or without 500 U/ml benzonase
T1 sequence: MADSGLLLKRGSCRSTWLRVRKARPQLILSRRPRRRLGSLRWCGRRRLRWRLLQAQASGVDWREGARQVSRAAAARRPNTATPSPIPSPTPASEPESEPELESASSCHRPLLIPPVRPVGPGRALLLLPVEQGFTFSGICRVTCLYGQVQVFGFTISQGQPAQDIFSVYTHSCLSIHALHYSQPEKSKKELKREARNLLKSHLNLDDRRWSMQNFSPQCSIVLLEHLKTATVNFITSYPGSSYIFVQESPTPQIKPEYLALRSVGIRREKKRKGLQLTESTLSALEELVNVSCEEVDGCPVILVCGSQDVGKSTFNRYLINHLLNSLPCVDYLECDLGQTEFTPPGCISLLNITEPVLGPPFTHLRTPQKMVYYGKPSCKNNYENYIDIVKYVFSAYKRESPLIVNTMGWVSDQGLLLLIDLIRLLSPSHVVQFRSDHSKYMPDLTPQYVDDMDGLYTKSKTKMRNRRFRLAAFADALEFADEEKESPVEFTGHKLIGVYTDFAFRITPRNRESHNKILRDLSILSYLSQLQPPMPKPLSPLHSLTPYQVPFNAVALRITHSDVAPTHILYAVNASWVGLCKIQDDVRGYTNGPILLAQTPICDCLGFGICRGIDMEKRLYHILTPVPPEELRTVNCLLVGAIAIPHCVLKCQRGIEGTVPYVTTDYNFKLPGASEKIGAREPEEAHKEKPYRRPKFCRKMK

[2] = target: T2, 3×Flag–WDR18 (human (endogenous in HEK 293FT)) (UniProt Q9BV38); experiment: as above
T2 sequence: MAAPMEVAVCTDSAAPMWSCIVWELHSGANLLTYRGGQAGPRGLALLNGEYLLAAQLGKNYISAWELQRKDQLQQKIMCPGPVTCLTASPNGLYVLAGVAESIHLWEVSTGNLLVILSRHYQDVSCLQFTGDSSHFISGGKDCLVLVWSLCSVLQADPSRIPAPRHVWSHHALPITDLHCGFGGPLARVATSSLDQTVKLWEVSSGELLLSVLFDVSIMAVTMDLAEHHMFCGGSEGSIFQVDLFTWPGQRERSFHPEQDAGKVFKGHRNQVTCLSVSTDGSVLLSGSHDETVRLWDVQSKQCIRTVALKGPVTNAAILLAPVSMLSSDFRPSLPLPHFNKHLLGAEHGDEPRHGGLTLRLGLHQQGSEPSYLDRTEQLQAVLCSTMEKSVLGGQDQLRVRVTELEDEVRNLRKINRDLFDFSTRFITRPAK

[3] = target: PELP1 (human (endogenous in HEK 293FT)) (UniProt Q8IZL8); experiment: as above
[4] = target: SENP3 (human (endogenous in HEK 293FT)) (UniProt Q9H4L4); experiment: as above
[5] = target: T3, TEX10 (human (endogenous in HEK 293FT)) (UniProt Q9NXF1); experiment: as above
T3 sequence: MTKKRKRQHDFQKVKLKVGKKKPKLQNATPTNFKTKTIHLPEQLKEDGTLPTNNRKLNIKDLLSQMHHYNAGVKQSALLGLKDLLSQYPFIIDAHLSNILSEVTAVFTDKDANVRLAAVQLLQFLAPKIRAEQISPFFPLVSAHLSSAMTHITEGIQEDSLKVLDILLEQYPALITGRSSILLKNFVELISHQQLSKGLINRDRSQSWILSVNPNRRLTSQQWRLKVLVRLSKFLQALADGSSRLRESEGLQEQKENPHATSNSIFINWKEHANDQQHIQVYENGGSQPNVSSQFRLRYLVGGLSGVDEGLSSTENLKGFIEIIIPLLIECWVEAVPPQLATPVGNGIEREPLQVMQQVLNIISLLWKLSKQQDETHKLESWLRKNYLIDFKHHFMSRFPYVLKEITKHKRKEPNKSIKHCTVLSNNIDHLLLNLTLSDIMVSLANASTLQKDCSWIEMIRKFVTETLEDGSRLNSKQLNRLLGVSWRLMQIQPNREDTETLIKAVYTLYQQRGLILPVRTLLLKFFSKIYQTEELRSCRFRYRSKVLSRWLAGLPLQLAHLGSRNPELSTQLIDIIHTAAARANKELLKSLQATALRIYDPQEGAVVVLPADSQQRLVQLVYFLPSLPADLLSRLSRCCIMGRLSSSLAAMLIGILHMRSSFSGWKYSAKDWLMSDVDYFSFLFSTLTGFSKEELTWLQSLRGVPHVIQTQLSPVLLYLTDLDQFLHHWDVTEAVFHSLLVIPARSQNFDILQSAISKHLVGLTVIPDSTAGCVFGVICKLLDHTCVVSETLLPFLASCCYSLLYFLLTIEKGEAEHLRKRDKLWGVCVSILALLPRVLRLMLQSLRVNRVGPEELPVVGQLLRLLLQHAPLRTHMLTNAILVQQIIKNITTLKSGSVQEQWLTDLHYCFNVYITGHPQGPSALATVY

[6] = target: T1, 3×Flag–NOL9 (human (endogenous in HEK 293FT)); experiment: co-sedimentation; Flag–NOL9-associated and PHC2–Flag-associated proteins purified from the soluble chromatin fraction of cells with wild-type RING1B, eluted with 3×Flag peptide, 10–30% sucrose gradient, 16 h at 4 °C, fractions immunoblotted
[7] = target: T1, 3×Flag–NOL9 (human (endogenous in HEK 293FT)); experiment: co-sedimentation; as a6, but proteins purified from RING1B-2A mutant cells
[8] = target: RING1B(Q137A/Q138A) (human (endogenous in HEK 293FT)) (UniProt Q99496); experiment: as above
[9] = target: RING1B (human (endogenous in HEK 293FT)) (UniProt Q99496); experiment: co-IP; immunoprecipitation from the DNase I-digested chromatin fraction of HEK 293FT cells (IP buffer 250 mM NaCl, 1% Triton X-100), Dynabeads Protein A/G, immunoblot; Fig. 1f, g with or without 500 U/ml benzonase
[10] = target: RING1B (human (endogenous in HEK 293FT)) (UniProt Q99496); experiment: co-sedimentation; Flag–NOL9-associated and PHC2–Flag-associated proteins purified from the soluble chromatin fraction of cells with wild-type RING1B, eluted with 3×Flag peptide, 10–30% sucrose gradient, 16 h at 4 °C, fractions immunoblotted

RING1B (from UniProt Q99496 1-336)
binding [1]: binds
binding [2]: binds
binding [3]: binds
binding [4]: binds
binding [5]: binds
binding [6]: binds

RING1B(Q137A/Q138A) (from UniProt Q99496 1-336)
binding [7]: no binding

B1: WDR18 (protein, UniProt Q9BV38 1-432)
chain: T2 sequence
binding [8]: no binding
binding [9]: binds
binding [10]: binds
